# Measurements reported in publication PMC4336329 (PLoS ONE, 2015).
# Out of some 310,000 compounds screened, about 2,200 (0.71%) showed an effect of 50% or more. The effect is printed as a negative number. The list shows a part of the results.
# Target: human ether-à-go-go-related gene (hERG) potassium channel (human, UniProt Q12809)
# Assay: primary screen, population patch clamp on CHO cells stably expressing hERG
# human ether-à-go-go-related gene (hERG) potassium channel, sequence (Q12809 whole entry, looked up): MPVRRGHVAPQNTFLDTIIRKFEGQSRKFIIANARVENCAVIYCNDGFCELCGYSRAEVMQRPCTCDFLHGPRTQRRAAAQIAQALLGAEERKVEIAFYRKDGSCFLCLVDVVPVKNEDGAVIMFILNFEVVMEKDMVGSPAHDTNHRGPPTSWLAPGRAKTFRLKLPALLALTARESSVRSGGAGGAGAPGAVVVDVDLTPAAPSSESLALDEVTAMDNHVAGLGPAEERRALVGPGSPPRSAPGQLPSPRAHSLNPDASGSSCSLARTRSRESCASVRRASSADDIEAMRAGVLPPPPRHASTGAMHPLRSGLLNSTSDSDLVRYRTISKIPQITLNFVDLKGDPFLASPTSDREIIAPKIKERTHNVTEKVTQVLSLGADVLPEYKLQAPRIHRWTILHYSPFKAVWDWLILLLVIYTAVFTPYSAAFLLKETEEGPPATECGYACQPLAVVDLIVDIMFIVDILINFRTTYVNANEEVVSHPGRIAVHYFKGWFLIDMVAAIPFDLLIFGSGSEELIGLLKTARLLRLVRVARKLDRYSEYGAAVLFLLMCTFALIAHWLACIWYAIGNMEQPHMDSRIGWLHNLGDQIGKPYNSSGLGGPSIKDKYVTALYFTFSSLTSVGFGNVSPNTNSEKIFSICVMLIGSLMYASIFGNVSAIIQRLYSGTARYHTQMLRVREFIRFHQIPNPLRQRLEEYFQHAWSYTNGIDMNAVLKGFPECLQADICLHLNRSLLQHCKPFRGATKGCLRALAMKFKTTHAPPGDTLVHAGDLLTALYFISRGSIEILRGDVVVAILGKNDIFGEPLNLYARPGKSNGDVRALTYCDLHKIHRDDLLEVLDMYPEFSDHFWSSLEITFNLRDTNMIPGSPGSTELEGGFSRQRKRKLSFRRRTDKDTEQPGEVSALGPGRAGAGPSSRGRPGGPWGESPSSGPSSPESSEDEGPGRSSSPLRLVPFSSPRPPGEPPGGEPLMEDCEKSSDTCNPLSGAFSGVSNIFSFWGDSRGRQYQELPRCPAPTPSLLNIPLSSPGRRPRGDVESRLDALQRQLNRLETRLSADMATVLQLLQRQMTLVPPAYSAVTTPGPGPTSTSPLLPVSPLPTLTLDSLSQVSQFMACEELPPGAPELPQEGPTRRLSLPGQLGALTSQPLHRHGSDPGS
row,SMILES,"hERG current change (%, negative = inhibition) at 1uM [%]"
1,Cc1ccc(S(=O)(=O)N2CCC(=O)N(CCOCc3ccccc3C)CC2)cc1,10.5
2,O=C(C1=C[C@H](c2csc3ccccc23)C[C@H](OCCCCO)O1)N1CCN(Cc2ccc3c(c2)OCO3)CC1,-0.399
3,Cc1cc(C)nc(NS(=O)(=O)c2ccc(N3C(=O)C4CC=C(Cl)CC4C3=O)cc2)n1 (centres unmarked),4.06
4,CCOc1ccc(N2CC(C(=O)Nc3ccc(S(=O)(=O)N4CCOCC4)cc3)CC2=O)cc1 (centres unmarked),7.03
5,O=C(CS(=O)(=O)c1cccc(Cl)c1)Nc1ccccc1Cl,9.46
6,Cc1c(Cl)cccc1N(Cc1ccc(C(=O)O)cc1)S(=O)(=O)c1ccccc1,3.4
7,CCN1CCN(C(c2ccccc2F)c2nnnn2Cc2ccc3c(c2)OCO3)CC1.Cl (centres unmarked),-10.2
8,O=C(Nc1ccnn1C1CCN(Cc2cc3ccccc3[nH]2)CC1)C1CCOC1 (centres unmarked),7.3
9,COC(CNC(=O)C1CCCCC1C(=O)O)OC (centres unmarked),7.74
10,CCc1ccccc1OCC(=O)Nc1cc(S(=O)(=O)N(CC)CC)ccc1N1CCOCC1,9.24
11,N#Cc1ccccc1Oc1ccc(S(=O)(=O)N2CCCCC2)cn1,15.2
12,COc1cccc(/C=C/C(=O)OCC(=O)Nc2cc(S(=O)(=O)N3CCOCC3)ccc2C)c1,18.5
13,COc1ccc(/C=C2\N=C(C(C)(C)C)OC2=O)c(OC)c1,14.6
14,Cc1c(C(=O)NCCSCc2ccc(Cl)cc2Cl)cccc1[N+](=O)[O-],17
15,Cc1ccsc1C(=O)NNC(=O)CCN1CCN(c2ccccc2)CC1,0.276
16,CCC1(CC)NC(=O)NC1=O,11.1
17,CCCOc1ccc(Cl)cc1/C=C1/C(=O)ON=C1C,10.1
18,CN1C(=O)N(C)C2(c3ccccc3)Nn3c(s/c(=C/c4ccccc4F)c3=O)=NC12c1ccccc1 (centres unmarked),9.18
19,COc1ccc(Cl)cc1C(=O)NNC(=O)COC(=O)CC(NC(C)=O)c1ccccc1 (centres unmarked),20.1

row,SMILES,"hERG current change (%, negative = inhibition) at 1uM [%]"
1,Cc1ccc([N+](=O)[O-])cc1NC(=O)C1CCN(S(C)(=O)=O)CC1,19.2
2,CCCCN(C)C(=O)c1cc2cc3ccc(OC)cc3nc2o1,8.31
3,COc1ccccc1CNC(=O)CCCc1cn(C)c2ccccc12,5.66
4,Cc1ccc(S(=O)(=O)NCc2n[nH]c(=S)n2C)cc1,17
5,O=C(NC1CCSc2ccccc21)c1ccccc1F (centres unmarked),6.84
6,Cl.Fc1ccc(-c2ccc(CNCc3ccccn3)o2)cc1,11.5
7,COc1ccc(C)cc1NC(=O)C1CCN(S(C)(=O)=O)CC1,11.2
8,Cc1cnc(C(=O)OC(C)C(=O)Nc2ccc(Cl)cn2)cn1 (centres unmarked),12.2
9,Cc1ccc(SCc2[nH]nc3c2C2(C(=O)N(C)c4ccccc42)C(C#N)=C(N)O3)cc1 (centres unmarked),2.51
10,C/C(=N\NC(=O)c1nnn(-c2nonc2N)c1CN(C)c1ccccc1)c1cccnc1,14.3
11,CCCCCCn1c(O)c(C=NCCN2CCOCC2)c(=O)[nH]c1=O,7.51
12,CS(=O)(=O)N(Cc1nnc(-c2cccs2)o1)c1ccc(Cl)cc1F,1.29
13,CC(N=Cc1ccccc1O)c1ccccc1 (centres unmarked),10.2
14,Cc1noc(C)c1CC(=O)Nc1ccc2c(c1)OCO2,1.31
15,O=C(NCc1ccncc1)C(=O)NCc1ccncc1,9.27
16,COc1ccc(C2NS(=O)(=O)N=C2N)cc1 (centres unmarked),10.3
17,CCC(C)NC(=O)Cn1cnc2sc(C)cc2c1=O (centres unmarked),1.12
18,COc1ccc(CN(C)C(=O)c2cc(S(=O)(=O)NCc3ccccc3)ccc2C)c(OC)c1,5.08
19,Cc1noc(/C=C/N(C)C)c1S(=O)(=O)N(C)CC(=O)NC1CCCCC1,10.2

row,SMILES,"hERG current change (%, negative = inhibition) at 1uM [%]"
1,CCOC(=O)N1CCN(C(=O)c2ccccc2NS(=O)(=O)c2ccc(C)cc2)CC1,5.59
2,COc1ccc(NC(=O)O/N=C2/CCCc3ccc(OC)cc32)cc1,8.82
3,CC(C)NC(=O)c1ccc(CS(=O)(=O)c2ccc(Br)cc2)o1,1.46
4,NS(=O)(=O)c1ccc(CNC(=O)Cc2ccccc2F)cc1,5.27
5,COc1cc(OC)c(NC(=O)C(=O)CC(=O)c2ccc(C)cc2C)cc1Cl,15.9
6,Cc1ccc(C)c(NC(=O)C2CC(O)CN2C(=O)Oc2ccccc2)c1 (centres unmarked),11.8
7,Cc1ccc(CN2C(=O)N/C(=C\c3ccc(-c4ccc(C(=O)O)cc4C)o3)C2=O)cc1,2.71
8,COc1ccc(C2CC(=O)C(C=NCCCO)=C(O)C2)cc1 (centres unmarked),11.6
9,Cc1cccc(-n2c(Cc3cc(=O)[nH]c(=O)[nH]3)nnc2SCC(=O)Nc2cccc(C(F)(F)F)c2)c1,-0.582
10,CCOCc1cc(CN2CCC(CCC(=O)NC3CC3)CC2)ccc1OC,-14.7
11,Cc1cccc(Nc2c(-c3ccc(N4CCOCC4)cc3)nc3ncccn23)c1,11.4
12,CCCN(C(=O)c1cnccn1)c1c(N)n(Cc2ccccc2)c(=O)[nH]c1=O,5.66
13,Cc1ccc(/C=N/Nc2ccc(Cl)c(C(=O)O)c2)s1,8.18
14,Cc1cnn(-c2cc(N/N=C/c3ccccc3F)ncn2)c1,8.07
15,C=CCOC(=O)C1C(=O)CC(C)(O)C(C(=O)OCC=C)C1c1ccc(N(C)C)cc1 (centres unmarked),15
16,Cc1ccccc1-n1c(SCC(=O)c2cc(C)n(C)c2C)nnc1-c1cccnc1,-12.5
17,CCN(CC)S(=O)(=O)c1ccc(C)c(NC(=O)Cn2c(=O)cnc3ccccc32)c1,15.8
18,COc1ccc(NC2CC(=O)N(C)C2=O)cc1 (centres unmarked),0.171
